A lower IC50 marks a more sensitive line; a limit (>, <) means that the fit lies beyond the doses tested. AUC is the area under the same curve over the 256-fold range up to the top dose, as a fraction; values near 1 show little effect. For some assays here: Any top dose called inferred comes from the curve model; the source does not state it.
Experiments:
Assay in all cases: Viability of human cancer cell lines after 72 h of drug (GDSC screen)
Bexarotene = compound: C=C(c1ccc(C(=O)O)cc1)c1cc2c(cc1C)C(C)(C)CCC2(C)C [Bexarotene]; details: top dose 8 µM
Procedure: (§1)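 Human cancer cell lines in 384-well plates, medium with 10% serum, drug for 72 h over a 256-fold dose range (nine 2-fold or five 4-fold steps up to the top dose). Adherent lines were fixed and stained with the nucleic acid dye Syto60, suspension lines read with resazurin; signal relative to control wells, capped at 0 and 100%. One two-parameter sigmoid per drug and line, fitted in a mixed model over all curves with the slope shared within a line.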

NPK76-II-72-1 = compound: COc1cc(C(=O)NC2CCN(C)CC2)ccc1Nc1ncc2c(n1)N(C1CCCC1)C(C)CC(=O)N2C [NPK76-II-72-1]; details: top dose 10.24 µM; top dose inferred
Procedure: as §1

Etoposide = compound: COc1cc([C@@H]2c3cc4c(cc3[C@@H](O[C@@H]3O[C@@H]5CO[C@@H](C)O[C@H]5[C@H](O)[C@H]3O)[C@H]3COC(=O)[C@H]23)OCO4)cc(OC)c1O [Etoposide]; details: top dose 16 µM
Procedure: as §1

YK 4-279 = compound: COc1ccc(C(=O)CC2(O)C(=O)Nc3c(Cl)ccc(Cl)c32)cc1 [YK 4-279]; details: top dose 10 µM
Procedure: as §1

BMS-345541 = compound: Cc1ccc2nc(NCCN)c3ncc(C)n3c2c1 [BMS-345541]; details: top dose 16 µM
Procedure: as §1

AZD7762 = compound: NC(=O)Nc1cc(-c2cccc(F)c2)sc1C(=O)N[C@H]1CCCNC1 [AZD7762]; details: top dose 2 µM
Procedure: as §1

GSK-650394 = compound: O=C(O)c1ccc(-c2c[nH]c3ncc(-c4ccccc4)cc23)cc1C1CCCC1 [GSK-650394]; details: top dose 16 µM; top dose inferred
Procedure: as §1

XAV 939 = compound: Oc1nc(-c2ccc(C(F)(F)F)cc2)nc2c1CSCC2 [XAV 939]; details: top dose 5 µM; top dose inferred
Procedure: as §1

Row | Cell Line | AUC (Bexarotene) | IC50 (Bexarotene) [µM] | AUC (NPK76-II-72-1) | IC50 (NPK76-II-72-1) [µM] | AUC (Etoposide) | IC50 (Etoposide) [µM] | AUC (YK 4-279) | IC50 (YK 4-279) [µM] | AUC (BMS-345541) | IC50 (BMS-345541) [µM] | AUC (AZD7762) | IC50 (AZD7762) [µM] | AUC (GSK-650394) | IC50 (GSK-650394) [µM] | AUC (XAV 939) | IC50 (XAV 939) [µM]
1 | LNZTA3WT4 (glioma, adherent) | 0.922 | > 8 | 0.962 | > 10.2 | 0.735 | 4.59 | 0.602 | 1.19 | 0.969 | > 16 | 0.531 | 0.151 | 0.944 | > 16 | 0.969 | > 5
2 | LOU-NH91 (lung squamous cell carcinoma, adherent) | 0.96 | > 8 | 0.958 | > 10.2 | 0.928 | > 16 | 0.767 | 4.04 | 0.972 | > 16 | 0.603 | 0.246 | 0.986 | > 16 | 0.98 | > 5
3 | LS-123 (large intestine, adherent) | 0.944 | > 8 | 0.975 | > 10.2 | 0.676 | 3.67 | 0.92 | > 10 | 0.906 | > 16 | 0.866 | > 2 | 0.838 | > 16 | 0.919 | > 5
4 | LS-180 (large intestine, adherent) | 0.939 | > 8 | 0.956 | > 10.2 | 0.532 | 1.24 | 0.839 | 8.28 | 0.9 | > 16 | 0.855 | 1.97 | 0.761 | 6.45 | 0.977 | > 5
5 | LS-513 (large intestine, adherent) | 0.987 | > 8 | 0.818 | 6.08 | 0.938 | > 16 | 0.817 | 5.89 | 0.881 | > 16 | 0.694 | 0.448 | 0.981 | > 16 | 0.976 | > 5
6 | LS-1034 (large intestine, adherent) | 0.919 | > 8 | 0.877 | > 10.2 | 0.866 | > 16 | 0.798 | 5.35 | 0.884 | > 16 | 0.93 | > 2 | 0.851 | 14.2 | 0.974 | > 5
7 | LU-134-A (small cell lung carcinoma, suspension) | 0.987 | > 8 | 0.642 | 1.63 | 0.363 | 0.408 | 0.906 | > 10 | 0.782 | 7.12 | 0.74 | 0.642 | 0.784 | 7.29 | 0.981 | > 5
8 | LU-135 (small cell lung carcinoma, suspension) | 0.977 | > 8 | 0.708 | 2.19 | 0.262 | 0.242 | 0.968 | > 10 | 0.854 | 9.44 | 0.634 | 0.274 | 0.684 | 2.96 | 0.985 | > 5

— the supplement of paper PMC4967469
